The source holds more than one record for some entries. This is not the full list of results. The source may hold further records. Values that stand side by side read as repeated measurements on other runs, samples or individuals.
Biological target: sm1.2 (manufactured by Upstate Biotechnology), commercially available anti-hIGF-I antibody
Test: competitive ELISA: free hIGF-I inhibits binding of sm1.2 (4.0 µg/mL) to immobilised methylated BSA-hIGF-I

IC50: 1.2 µg/mL and 156 nM
Substance: human insulin-like growth factor-I (hIGF-I) (from UniProt P05019 49-118) (ligand)

— patent publication US20060193772A1, “Drugs for treating cancer” (priority 2003, published 2006)
